According to ChEMBL document CHEMBL4888484, “Replenishing the malaria drug discovery pipeline: Screening and hit evaluation of the MMV Hit Generation Library 1 (HGL1) against asexual blood stage Plasmodium falciparum ,using a nano luciferase reporter read-out” (2022):
Screen size: about 150,000 compounds; about 540 (0.36%) showed an effect of 50% or more. The list shows a part of the results.

The compounds below were run on Plasmodium falciparum (assay: Primary screen in NF54 nanoGlo assay, in single point, at 2uM, 72h; a lower Z score goes with more inhibition). Details: timepoint 72 hour.
Format: functional, Erythrocyte

Row | Structure (SMILES) | % Inhibition [%] | Z score
1 | Cc1nc(N)nc(C)c1CC(=O)N1CCC[C@H](C(=O)Cc2ccccc2)C1 | 5 | -0.71
2 | CCCn1c(C(=O)N2CCOCC2)cc2sccc21 | 31 | -4.18
3 | C=CCNC(=O)CNC1(c2ccccc2F)CC1 | 12 | -1.58
4 | Cc1n[nH]c(C)c1-c1cc(NCCO)nc(N)n1 | 2 | -0.24
5 | NS(=O)(=O)c1ccc(NC(=O)COC(=O)c2ccc3c(c2)CCCC3)cc1 | -2 | 0.46
6 | COc1cccc(C(C)CC(=O)NCC(C)(O)C(C)C)c1 (stereo unspecified) | -6 | 0.82
7 | CCCC(=O)N1CCC[C@H](CCc2nnc(-c3cnccn3)o2)C1 | -15 | 1.82
8 | CC(C)n1cnnc1C[C@H]1CCN(C(=O)NC2CCCCC2)C1 | -12 | 2.06
9 | N#Cc1ccccc1CO/N=C(\N)c1nonc1N | -3 | 0.34
10 | Cc1cc(Cl)ccc1-c1ccc2nc(-c3ccc(Cl)cc3)c(CN3CCN(C(=O)c4cccc(F)c4)CC3)n2c1 | -24 | 2.12
11 | O=C(NCC1(O)C2C3CC4C5C3CC2C5C41)c1coc(C2CCCCC2)n1 (stereo unspecified) | -16 | 1.38
12 | O=S(=O)(N1CCCCCC1)N1CCN(Cc2cccnc2)CC1 | -2 | 0.24
13 | CC(=O)N[C@@H]1c2ccccc2C2(CCN(C(=O)CCc3ccc(C)cc3)CC2)[C@H]1OCc1ccncc1 | -6 | 0.78
14 | CC(=O)NCc1nc(C2CC2)nn1CC(F)(F)F | 10 | -1.27
15 | CCCCNC(=O)NS(=O)(=O)c1ccc2c(c1)NC(=O)CO2 | -3 | 0.54
16 | CN1CCC(N(C)C(=O)c2cc3oc(-c4ccc(F)cc4)cc3n2Cc2ccccc2)CC1 | -13 | 1.92
17 | Nc1c(F)ccc(Br)c1F | -4 | 0.44
18 | O=C1[C@H]2[C@H](Cc3ccc(O)cc3)N[C@@]3(C(=O)Nc4ccccc43)[C@H]2C(=O)N1CC1CCCO1 (stereo partly specified) | -12 | 1.61
19 | Cc1ccc(S(=O)(=O)NC[C@@](O)(c2ccccc2)C2CCOCC2)s1 | -9 | 1.74
20 | Cc1n[nH]c(C)c1CNC(=O)[C@@H]1CCCC[C@@H]1C(=O)N1CCCC1 | -12 | 2.12
21 | CC1CS(=O)(=O)CCN1C(=O)N[C@H](C)c1ccccc1Cl (stereo partly specified) | -4 | 0.49

Row | Structure (SMILES) | % Inhibition [%] | Z score
22 | O=C(c1ccc(Cl)cc1)N1CCC2(CC1)Nc1ccccc1S(=O)(=O)N2 | -3 | 0.49
23 | CC(C)NC(=O)N1CCC(N2CC3(CCCCC3)[C@H]2c2ccccc2)CC1 | 3 | -0.46
24 | Cc1ccc(-c2cn(-c3ccc(C)cc3)c(NC(=O)CN(Cc3ccccc3)C(=O)C3CCCC3)n2)cc1 | 3 | -0.4
25 | COCc1nnc(NC(=O)c2n[nH]c3c2CCC3)s1 | -9 | 1.46
26 | Cn1nc(C(=O)NC[C@H]2Cc3ccccc3CN2)cc1N | -7 | 1.13
27 | O=C(NCC(F)(F)F)C(=O)NCC1(CO)CC1 | -4 | 0.47
28 | CCOC(=O)N1CCC(NC2CCOC2c2ccccc2)CC1 (stereo unspecified) | -1 | 0.18
29 | COc1ccc2c(c1)[C@@H](NC(=O)c1cn[nH]c1)CCO2 | 0 | -0.04
30 | CCOc1ccc(S(=O)(=O)N2CCCC[C@H]2CC)cc1 | 12 | -1.04
31 | CCOCCn1nc(C)cc1C(=O)N1CCC[C@](C)(c2ccccc2)C1 | 12 | -1.65
32 | COc1ccccc1NC(=O)[C@@H]1COCC(=O)N1Cc1cccs1 | -11 | 2.07
33 | Cc1n[nH]c(C)c1CNC1CCC(F)C1 (stereo unspecified) | -4 | 0.54
34 | CCN1CCN(S(=O)(=O)N2CCc3ccccc3C2)CC1 | 3 | -0.53
35 | N#Cc1cccc(N2CCC3(CC2)CNC(=O)C3)n1 | 0 | -0.03
36 | Cn1cccc1CCC(=O)NCCc1noc(C2CC2)n1 | -5 | 0.69
37 | O=C(C[C@H](c1ccccc1F)c1cn(Cc2ccc(F)cc2)c2ccccc12)N1CCOCC1 | -5 | 1.01
38 | COCCN1CCN(C(=O)c2cc3c(C)nn(-c4ccccc4)c3s2)C[C@@H]1C | -18 | 2.53
39 | CC1CN(C2CC2)CC1NC(=O)N1Cc2cccc(C#N)c2C1 (stereo unspecified) | 6 | -1.12
40 | Cc1cc(C)n(CC2(CNC(=O)C3(N4CCCCC4)CCCCC3)CC2)n1 | 8 | -1.2
41 | Cc1cc(C)cc(-c2nnc(NC(=O)N3CCC[C@@H]3CO)s2)c1 | 30 | -4.33
42 | C/C(=C\c1ccccc1)CN(C)[C@@H](C)c1cccnc1 | -7 | 1.25

Row | Structure (SMILES) | % Inhibition [%] | Z score
43 | O=S(=O)(Nc1cccc(Cl)c1)c1cccn2cnnc12 | 34 | -3.86
44 | CCc1nc(CC(=O)N2CCc3sccc3[C@@H]2C)cs1 | -21 | 2.42
45 | COc1ccc2c(C)c(C(=O)N3CCN(C(C)=O)CC3)oc2c1 | 10 | -1.42
46 | Cc1cc(C(=O)NC2(CN3CCN(c4ccc(F)cc4)CC3)CC2)ccn1 | -14 | 2.3
47 | Cc1ccnc(NS(=O)(=O)c2ccc(NC(=O)c3ccc4c(c3)OCO4)cc2)n1 | -9 | 1.18
48 | O=C(CCc1cccc(F)c1F)OC[C@H]1CNC(=O)O1 | -8 | 1.05
49 | Cc1ccc(NC(=O)[C@@H]2CNC[C@H](C(=O)NC3CCCCCC3)C2)cc1 | -5 | 1.01
50 | COc1ccccc1/N=C(\NC(=O)c1ccc(F)cc1)N1CCN(c2ccc(F)cc2)CC1 | -1 | 0.2
51 | CC(C)C1CCN(C(=O)Nc2cccc3ccn(C)c23)CC1 | 9 | -1.27
52 | O=C(c1cc2cc(F)ccc2[nH]1)N1[C@@H]2CC[C@H]1C[C@@H](O)C2 | -8 | 1.32
53 | COCC(=O)N[C@@H]1CN(C(=O)Cc2cccc(F)c2)CC[C@@H]1CO | -9 | 1.26
54 | COc1cccc(N2CCN(C(=O)Cc3ccccc3)[C@@H](C)C2=O)c1 | -5 | 0.55
55 | O=C(c1ccoc1)N1CCC2(CCCCC2)C1 | -1 | 0.11
56 | CCOc1ccc(C(=O)NCc2ccccc2)nn1 | -12 | 1.37
57 | CC(C)C(=O)N(CC(=O)Nc1nc(-c2ccccc2)cn1-c1ccc(F)cc1)C(C)C | -4 | 0.77
58 | COc1ccc(-c2nc(N3CCN(c4ccc(Cl)c(Cl)c4)CC3)nc3nn(C)c(N)c23)c(F)c1 | 2 | -0.24
59 | Cc1cccc(CNc2cc(C(=O)N3CCc4ccccc4C3)cc(S(=O)(=O)N(C)C)c2)c1 | -13 | 2.52
60 | CC(C)(C)n1c(=O)c2ccc(F)cc2n1CC(=O)NCc1ccc(Cl)cc1 | 9 | -1.37
61 | Cc1ccc(CNC(=O)[C@@H]2C[C@H](n3cnnn3)CN2CCCc2ccccc2)cc1 | -3 | 0.67
62 | CCCN1CCN(C(=O)c2cnn(C)c2)[C@H]2CS(=O)(=O)C[C@H]21 | 7 | -1.13
63 | CN(CC1CCOC1)C(=O)NC(c1ccccn1)C1CCCC1 (stereo unspecified) | -4 | 0.75

Row | Structure (SMILES) | % Inhibition [%] | Z score
64 | Cc1cc2c(cc1S(=O)(=O)N1CCC(C(=O)N(Cc3ccccc3)C(C)C)CC1)OCC(=O)N2 | -15 | 1.72
65 | Cc1cc(F)ccc1CN1CCN(C)[C@]2(CCC(=O)N(CC3CC3)CC2)C1 | -17 | 1.58
66 | CO[C@@H]1CC[C@@]2(OC)CCN(C(=O)c3cnn(Cc4ccccc4)c3)[C@H]2C1 | -1 | 0.29
67 | Fc1ccc(-c2nsc3c(N4CCNCC4)ncnc23)cc1 | 9 | -1.59
68 | CCCOCCN1CCC[C@H](c2cc(N3CCOCC3)nc(C)n2)C1 | -7 | 0.89
69 | Cc1ccc(NC(=O)CC(=O)N2CC[C@@H](O)C2)c(C)c1 | -6 | 1.36
70 | CCn1nccc1C=C(C)c1cnccn1 | 3 | -0.28
71 | CCn1nnc2c(=O)n(Cc3ccccn3)cnc21 | 1 | -0.11
72 | O=C(NCC[C@H]1CCCCO1)Nc1cccn(CC(F)(F)F)c1=O | -10 | 0.99
73 | Fc1cccc(-c2cn[nH]c2C2CCN(CCCC(F)(F)F)CC2)c1 | -3 | 0.56
74 | COc1ccc(C2CC(c3ccc(OC)cc3)n3ncnc3N2C(=O)C(C)C)cc1 (stereo unspecified) | 30 | -3.38
75 | CCC(CC)NC1CCN(c2ccc(-n3cccn3)cc2)CC1 | -13 | 1.83
76 | O=C(C[C@@H]1C(=O)Nc2c(F)cccc21)NCc1nnc(C2CC2)s1 | -15 | 1.5
77 | Clc1ccc2c(c1Cl)CC[C@@H]2Nc1ccc2nnnn2n1 | 13 | -1.66
78 | O=C(Cc1ccc(O)cc1)N1CCC2(CCC(=O)N(C[C@H]3CCCO3)C2)CC1 | -8 | 0.97
79 | CCn1c(CCc2cccc(NC(=O)Nc3ccccc3)c2)nc2ccccc21 | 1 | -0.11
80 | CO[C@H]1C[C@H]2CC(NCc3noc(C4CC4)n3)C[C@H]2C1 (stereo partly specified) | -5 | 0.83
81 | CN(CCCNC(=O)CN1C(=O)CCn2nc(-c3cccc(Cl)c3)cc21)Cc1ccccc1 | 0 | 0.03
82 | CCC(CC)NC(=O)Nc1nc(-c2ccccc2Cl)co1 | -9 | 1.68
83 | O=C(Cn1nc2c(N3CCc4ccccc4C3)nccn2c1=O)Nc1ccccc1F | -14 | 1.34
